# In publication PMC4336329 (PLoS ONE, 2015):
# About 2,200 (0.71%) of roughly 310,000 compounds showed an effect of 50% or more. The effect is printed as a negative number. The list shows a part of the results.
# Molecular target: human ether-à-go-go-related gene (hERG) potassium channel (human, UniProt Q12809)
# Assay: primary screen, population patch clamp on CHO cells stably expressing hERG
# human ether-à-go-go-related gene (hERG) potassium channel, sequence (Q12809 whole entry, looked up): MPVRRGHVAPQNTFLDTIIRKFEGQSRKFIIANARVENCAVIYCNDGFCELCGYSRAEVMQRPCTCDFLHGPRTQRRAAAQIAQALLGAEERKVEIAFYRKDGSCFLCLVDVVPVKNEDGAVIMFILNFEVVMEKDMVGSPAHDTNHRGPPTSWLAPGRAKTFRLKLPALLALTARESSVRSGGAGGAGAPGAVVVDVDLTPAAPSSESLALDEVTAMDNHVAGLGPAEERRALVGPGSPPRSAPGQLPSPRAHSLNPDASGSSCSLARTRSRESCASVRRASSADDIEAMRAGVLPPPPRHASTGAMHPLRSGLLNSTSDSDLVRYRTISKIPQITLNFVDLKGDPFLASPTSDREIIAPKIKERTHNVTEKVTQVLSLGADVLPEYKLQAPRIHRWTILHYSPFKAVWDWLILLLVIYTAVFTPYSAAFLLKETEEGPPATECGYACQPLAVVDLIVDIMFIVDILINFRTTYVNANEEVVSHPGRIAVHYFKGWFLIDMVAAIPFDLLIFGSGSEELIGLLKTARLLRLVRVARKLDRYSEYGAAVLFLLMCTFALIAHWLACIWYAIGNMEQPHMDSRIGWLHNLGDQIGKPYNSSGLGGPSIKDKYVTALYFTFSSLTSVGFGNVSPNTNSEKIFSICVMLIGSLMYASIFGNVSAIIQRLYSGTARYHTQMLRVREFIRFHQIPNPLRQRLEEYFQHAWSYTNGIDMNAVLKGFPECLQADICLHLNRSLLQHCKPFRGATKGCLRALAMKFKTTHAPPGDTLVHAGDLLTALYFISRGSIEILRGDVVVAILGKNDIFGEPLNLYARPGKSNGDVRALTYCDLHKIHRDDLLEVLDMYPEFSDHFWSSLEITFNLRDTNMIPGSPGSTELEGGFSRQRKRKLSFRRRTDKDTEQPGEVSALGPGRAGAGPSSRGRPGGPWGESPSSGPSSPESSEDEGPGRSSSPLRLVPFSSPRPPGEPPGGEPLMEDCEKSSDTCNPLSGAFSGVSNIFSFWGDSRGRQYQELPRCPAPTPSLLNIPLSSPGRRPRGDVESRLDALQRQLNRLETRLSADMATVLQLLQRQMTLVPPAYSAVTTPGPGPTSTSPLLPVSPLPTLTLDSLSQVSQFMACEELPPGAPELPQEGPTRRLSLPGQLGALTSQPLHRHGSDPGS
row,Structure (SMILES),"hERG current change (%, negative = inhibition) at 1uM"
1,COc1ccc2[nH]cc(CCNC(=S)NCCc3ccccc3)c2c1,2.33%
2,CCOC(=O)c1cc2c3ccccc3n(CC)c2nc1N,4.58%
3,CCn1cc(C(=O)N[C@H](C(=O)O)C(C)C)c(=O)c2cc3c(cc21)OCO3,1.07%
4,COc1cccc(-c2csc3nnc(SCC(=O)c4ccc(NC(C)=O)cc4)n23)c1,-1.87%
5,CCN(CC)C(=O)Cn1cnc2ccccc2c1=O,2.42%
6,O=C(CN1CCN(c2ccccn2)CC1)Nc1cccc(S(=O)(=O)N2CCCC2)c1,9%
7,CCNC(=O)NC(=O)COC(=O)CCCSc1nc2ccccc2[nH]1,2.85%
8,Cc1cc(C(=O)OCC(=O)Nc2nnc(C(C)C)s2)c2ccccc2n1,2.79%
9,O=S(=O)(Nc1ccc(Cc2ccncc2)cc1)c1ccc(Cl)s1,8.56%
10,CCOc1ccc(C(=O)CCC(=O)Nc2cccc(S(=O)(=O)N3CCCCC3)c2)cc1,0.0843%
11,COc1ccccc1NC(=O)c1ccc2c(c1)nnn2C,10.8%
12,CCONC(=O)Nc1ccccc1[N+](=O)[O-],13.4%
13,COc1ccccc1NC(=O)C1CCCN(C(=O)NCc2ccccc2)C1 (stereo not drawn),9.96%
14,Cc1ccc(NCC(=O)N/N=C/c2cccn2C)cc1,15.2%
15,CCN(CC(=O)NC(C)C)C(=O)C(CCSC)NC(=O)c1ccccc1OC (stereo not drawn),8.89%
16,O=c1c2ccccc2nc(SCc2nnc(-c3ccccc3)o2)n1-c1ccc(F)cc1F,13.4%
17,COC(=O)c1ccc(CSc2nc3ccc(S(=O)(=O)N4CCOCC4)cc3[nH]2)cc1,7.46%
18,O=C(N/N=C/c1ccc(Br)s1)c1cccc([N+](=O)[O-])c1,12.4%
19,Cn1c(SCC(=O)OC2CCCCC2)nnc1-c1ccc2c(c1)OCO2,-3.53%
20,Cc1ccc(S(=O)(=O)n2ccc3cccnc32)cc1,9.37%
21,COc1ccc(-c2ccc(SCC(=O)NC3CCCCC3)nn2)cc1OC,14.8%
22,CCOC(=O)N1CCN(C(=O)c2ccc(N3C(=O)CCC3=O)cc2)CC1,-2.82%

row,Structure (SMILES),"hERG current change (%, negative = inhibition) at 1uM"
1,CC(C)CN(CCCNC(=O)CN1C(=O)COc2ccc(S(=O)(=O)N3CCCC3)cc21)CC(C)C,19%
2,Cc1ncc(C[n+]2csc(CCOC(=O)CC34CC5CC(CC(C5)C3)C4)c2C)c(N)n1.Cl.[Cl-],7.2%
3,CNC(=O)c1ccc(NC(=O)CN2c3cccc4cccc(c34)S2(=O)=O)cc1,9.49%
4,COc1ccc(OC)c(C2=NOC(C(=O)NCCN3CCOCC3)C2)c1 (stereo not drawn),3.42%
5,COc1ccc(CCNC(=O)C2CCN(S(=O)(=O)c3ccc(NC(C)=O)cc3)CC2)cc1OC,9.66%
6,Cc1cccc(N2C(=O)N3[C@@H]4c5ccccc5OC[C@@H]4[C@@H](c4ccccc4)[C@]3(C)C2=O)c1,7.05%
7,CCC(C(=O)NCCc1ccccc1)c1ccccc1 (stereo not drawn),9.68%
8,Cc1cc(-c2cccnc2)c(C#N)c(SCc2cccc(F)c2)n1,-2.48%
9,Cc1nc2ccccn2c1-c1csc(Nc2ccc(C(=O)O)cc2)n1,14.1%
10,Cc1nc2cc(NC(=O)NCCCO)ccc2o1,10.6%
11,CCCOc1ccc(C(CC(=O)O)NC(=O)CC(c2ccccc2)c2ccccc2)cc1 (stereo not drawn),11.1%
12,COc1ccc(OC)c(S(=O)(=O)NC(C)c2ccc(-n3ccnc3)cc2)c1 (stereo not drawn),3.86%
13,O=C(/C=C\c1cccs1)N1CCN(Cc2ccc3c(c2)OCO3)CC1,-8.92%
14,O=[N+]([O-])c1cc(S(=O)(=O)N2CCCCC2)ccc1NCc1cccc(Cl)c1,9.01%
15,Cc1ccc(-c2n[nH]c(=S)n2-c2ccccc2)cc1,5.34%
16,Cn1c(CN2CCCC2)c(C#N)c2ccccc21,7.43%
17,Cl.Clc1ccccc1CSc1nnc([C@@H]2CCCN2)o1,14.9%
18,Cc1[nH]c(=O)nc2c1CCC2,14.8%
19,CCn1c(N2CCN(CC(=O)Nc3cccc(C)c3C)CC2)nc2ccccc21,-26.9%
20,COc1ccc(CNC(=O)[C@H](C)NC(=O)C2CCN(S(=O)(=O)c3ccccc3)CC2)cc1,11.3%
21,COc1ccc(N2CCN(C(=O)C3(C)CC3(Cl)Cl)CC2)cc1 (stereo not drawn),9.18%
22,Cn1c(Cn2c(=O)sc3ccccc32)nnc1SCC(=O)Nc1ccccc1F,8.63%

row,Structure (SMILES),"hERG current change (%, negative = inhibition) at 1uM"
1,COc1ccc(C(C#N)CCC2OCCO2)cc1OC (stereo not drawn),-4.41%
2,COc1ccc(CCN2C(=O)CSC2c2ccc(F)cc2)cc1 (stereo not drawn),15%
3,CC(C)(C)c1csc(Sc2ncccc2[N+](=O)[O-])n1,15.2%
4,CC(/C=C/c1ccc(Cl)o1)=C\C(=O)O,7.22%
5,CC1CN(CCOc2ccc(Cl)cc2Cl)CC(C)O1.O=C(O)C(=O)O (stereo not drawn),3.42%
6,Cc1cc(C(=O)COC(=O)c2ccc[nH]c2=O)c(C)n1-c1ccc(F)cc1,-6.89%
7,COc1ccc(S(=O)(=O)NCC2CCCN(C(=O)C=C(C)C)C2)cc1 (stereo not drawn),11.3%
8,CCOC(=O)C(=O)CC(=O)c1ccc2c(c1)OCCO2,-8.9%
9,N#Cc1ccccc1COc1cccc2c1CCCC2O (stereo not drawn),14.1%
10,CCOC(=O)C(CC)n1cnc2c(nnn2-c2ccc(F)cc2)c1=O (stereo not drawn),2.12%
11,O=C(CSc1nnnn1-c1cccc2ccccc12)NC(C(=O)O)(c1ccccc1)c1ccccc1,12.2%
12,COc1ccc(S(=O)(=O)NNC(=O)Nc2ccc(C)cc2C)c(OC)c1,9.84%
13,O=C(CC1SC(=O)N(c2ccccc2)C1=O)Nc1ccc(Cl)cc1 (stereo not drawn),14.5%
14,Cc1ccc(S(=O)(=O)Nc2nc(CN3CCOCC3)nc3sc(C)c(C)c23)cc1,-4.2%
15,COc1ccccc1CN(C(=O)CCl)C(C(=O)NC1CCCCC1)c1ccncc1 (stereo not drawn),11.6%
16,Cc1n[nH]c(=O)c2c(NC(=O)CSc3nnnn3-c3ccccc3)oc(C)c12,9.93%
17,CCC12CN(C(=O)c3ccc(OC)cc3)CC(CC)(CN(C(=O)c3ccc(OC)cc3)C1)C2=O,9.71%
18,Cc1cc(C(=O)CCC(=O)NC(C)c2ccc(S(N)(=O)=O)cc2)c(C)s1 (stereo not drawn),10.3%
19,Cn1c(SCC(=O)Nc2sccc2C(N)=O)nnc1-c1ccncc1,3.55%
20,O=C(/C=C/c1ccc(Cl)cc1Cl)NCc1ccncc1,12%
21,CN(C)CCSc1nnc(-c2ccccc2)o1.Cl,1.81%
22,c1ccc(-c2nc3ccccn3c2NC2CCCC2)nc1,6.33%

row,Structure (SMILES),"hERG current change (%, negative = inhibition) at 1uM"
1,CCN(CC)Cc1c(C(=O)N/N=C/c2ccncc2)nnn1-c1nonc1N,-16.3%
2,O=C(COc1coc(CN2CCN(c3ccccc3)CC2)cc1=O)Nc1cccc(F)c1,9.9%
3,Cc1onc(-c2ccc(Cl)cc2Cl)c1-c1csc(N/N=C/c2ccccc2)n1,7.93%
4,Cn1nccc1C(=O)Oc1cccc(/C=N/NC(=O)c2ccccc2O)c1,12.3%
5,CC(=O)N1c2ccc(S(=O)(=O)N3CCCCC3)cc2CC1C(=O)Nc1ccccc1C(F)(F)F (stereo not drawn),9.25%
6,O=C(OCc1c(-c2ccccc2)ncc2ccccc12)N1CCOCC1,13%
7,CCC(=O)N1CCc2cc(Br)cc(S(=O)(=O)N(C)c3ccc(OC)cc3)c21,6.35%
8,CCOC(=O)/C(C#N)=C/C1=C(N2CCOCC2)C(C)(C)OCC1,17.1%
9,CCCn1c(=O)c(-c2nc3ccccc3[nH]2)c(O)c2ccccc21,6.77%
10,Cc1cc(C(=O)OCC(=O)Nc2ccccc2)c(C)o1,7.07%
11,COC(=O)C(O)(CC(=O)Nc1cc(Cl)ccc1Cl)C(F)(F)F (stereo not drawn),3.33%
12,COc1ccc2[nH]c(C(=O)N3CCC(n4nccc4NC(=O)C4CC4)CC3)c(C)c2c1,8.32%
13,Cc1ccc([N+](=O)[O-])cc1S(=O)(=O)NCCc1c(C)[nH]c2ccccc12,4.4%
14,CCCOc1ccc(C(=O)NNC(=S)NC(=O)c2cc(-c3ccccc3)nc3ccccc23)cc1,3.17%
15,CC(=O)c1cccc(NC(=O)N2CCC(c3ccc(C)cc3)C2)c1 (stereo not drawn),12%
16,O=C(N/N=C/c1ccccc1O)C1CC(=O)N(c2ccc(Cl)cc2)C1 (stereo not drawn),13.3%
17,O=C(c1cc2ccccc2o1)N(C1CC1)C1(C(=O)Nc2ccccc2)CCCC1,11.9%
18,COc1ccc(S(=O)(=O)N2CCOCC2)cc1NC(=O)c1cc(C)oc1C,-2.29%
19,Cc1ccc(-c2noc(CCCC(=O)N3CCOCC3)n2)cc1,3.78%
20,Cc1cccc(C(=O)NCC(=O)OCC(=O)c2cc(C)n(CC3CCCO3)c2C)c1 (stereo not drawn),6.88%
21,Cc1ccc(S(=O)(=O)Oc2ccc(/C=C(/NC(=O)c3ccccc3)C(=O)NCC(=O)O)cc2)cc1,10.2%
